Measurements as given in PMC6919601, “Identification of Plasmodium dipeptidyl aminopeptidase allosteric inhibitors by high throughput screening” (PLoS ONE, 2019).
Screen size: about 110,000 compounds; about 230 (0.21%) showed an effect of 50% or more. Some of the results follow.

What follows are compounds tested against DPAP1 (Plasmodium falciparum, UniProt Q8IIJ9) (assay: primary screen, percent inhibition; read by cleavage of a fluorogenic dipeptide substrate; higher = more effect of the substance).
Chain of DPAP1 (Q8IIJ9 whole entry, looked up): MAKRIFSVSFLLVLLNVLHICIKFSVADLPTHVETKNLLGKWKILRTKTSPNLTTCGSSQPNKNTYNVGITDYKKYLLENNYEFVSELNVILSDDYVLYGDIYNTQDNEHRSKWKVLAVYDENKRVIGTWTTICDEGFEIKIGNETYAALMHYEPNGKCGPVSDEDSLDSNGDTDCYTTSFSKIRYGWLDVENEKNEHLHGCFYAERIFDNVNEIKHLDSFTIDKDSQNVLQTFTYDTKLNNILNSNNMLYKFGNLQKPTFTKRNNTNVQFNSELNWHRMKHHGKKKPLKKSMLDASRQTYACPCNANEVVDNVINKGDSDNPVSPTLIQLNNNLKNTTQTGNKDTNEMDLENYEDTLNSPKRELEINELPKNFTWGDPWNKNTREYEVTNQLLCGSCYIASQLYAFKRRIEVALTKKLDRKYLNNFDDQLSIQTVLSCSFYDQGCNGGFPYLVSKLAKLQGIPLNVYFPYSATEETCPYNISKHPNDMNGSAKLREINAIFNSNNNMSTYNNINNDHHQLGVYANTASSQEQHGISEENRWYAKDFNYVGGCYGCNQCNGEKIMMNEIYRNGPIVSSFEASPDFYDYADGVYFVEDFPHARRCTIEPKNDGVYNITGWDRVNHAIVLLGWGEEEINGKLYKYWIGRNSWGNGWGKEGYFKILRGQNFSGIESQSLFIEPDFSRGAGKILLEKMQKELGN
Parameters: species or system P. falciparum D10 trophozoite lysates; single well
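Further: 30 min substrate incubation versus DMSO and 10 µM JCP410 controls.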

Point of comparison: `COc1ccccc1/C=C1/N=C(SCC(=O)Nc2cc(C)on2)N(c2ccccc2)C1=O`, “% Inhibition @ 10 uM” value 1.36%. Against it:
- COc1ccc(N2CCN(Cc3cccc(Cl)c3)CC2)cc1 — lower, -4.61%
- CCOc1ccc2oc(=O)cc(CN(C)CCC#N)c2c1 — lower, 0.00706%
- CC(C(=O)N1CCN(c2ccccc2F)CC1)N1C(=O)c2ccccc2C1=O (centres unmarked) — lower, 0.727%
- CCCOc1ccc(C(O)(CCC)CCN2CCCCC2)cc1 (centres unmarked) — higher, 16.4%
- O=C(O)c1cnn2c(C(F)F)cc(-c3ccc(F)cc3)nc12 — lower, -3.53%
- COc1cc(CNc2nccs2)ccc1OCC(=O)NC1CCCCC1 — lower, -3.25%
- Cc1ccc(CNc2ccc3c(c2)CCC3)o1 — lower, -0.631%
- COc1ccc(C(=O)OC2=C(c3ccccc3)C(=O)c3ccccc3C2=O)cc1 — lower, -3.63%
- O=C(CCCn1nc(-c2ccccc2)c2ccccc21)NCc1cccs1 — lower, -3.08%
- O=C1NC(=O)/C(=C\c2ccc(OCc3ccccc3Cl)cc2)S1 — lower, -2.09%
- c1ccc2c(CNC3C4CC5CC(C4)CC3C5)c[nH]c2c1 (centres unmarked) — lower, -2.91%
- O=[N+]([O-])c1c(NC2CCCCC2)ccc2nonc12 — lower, 0.708%
- CC(C)C[C@H](Nc1nc(-c2cccnc2)cs1)C(=O)NCC#N — lower, -1.41%
- c1ccc(-c2cc3c4cccn4ccn3c2)cc1 — lower, -1.86%
- Cc1nnc(NCCc2ccccc2)c2c1nnn2Cc1ccc(F)cc1 — lower, -1.71%
- CC(C)NC(=O)/C(=C/c1cn(S(=O)(=O)N(C)C)c2ccccc12)NC(=O)c1ccccc1F — higher, 1.64%
- Cc1ccc2c(c1)C(=O)OC(C(=O)Nc1nc3c(s1)CCCC3)C2 (centres unmarked) — lower, 0.221%
- O=c1oc(-c2ccco2)nc2sc3c(c12)CCCCC3 — lower, -1.5%
- CCc1c(-c2ccccc2)n(-c2cccc(C)c2)c2nc3c(c(=O)n(C)c(=O)n3C)n12 — higher, 4.32%
- Cc1cc(C)n2nc3nc(N4CCCCC4)nc(-c4ccco4)c3c2n1 — lower, -6.5%
- Cc1ccc(S(=O)(=O)NC(=O)CSC#N)cc1 — lower, -6.2%
- COc1ccc(OC)c(NC(=O)CN(c2cccc(Cl)c2C)S(=O)(=O)c2ccccc2)c1 — lower, -2.83%
- COc1cc(-c2ccc(NC(=O)c3cc4ccccc4cc3O)c(OC)c2)ccc1NC(=O)c1cc2ccccc2cc1O — lower, -2.32%
- Cc1ccc2sc(-c3ccc(NC(=O)c4ccccc4Cl)cc3)nc2c1 — lower, -7.87%
- CC1CC(C)CN(C(=O)CN2CCN(Cc3ccc(Cl)cc3)C2=O)C1 (centres unmarked) — lower, -0.984%
- CCOC(=O)C1=CN(C)C=C(C(=O)OCC)C1c1ccccc1OCc1ccccc1 — lower, -3.23%
- Cc1n[nH]c(C)c1Sc1ccc(Cl)cc1 — higher, 2.76%
- Cc1cc(Cl)ccc1NC(=O)C12CCC(C)(C(=O)C1=O)C2(C)C (centres unmarked) — higher, 1.78%
- COc1ccc2ncc(S(=O)(=O)c3ccc(C(C)C)cc3)c(O)c2c1 — lower, -3.45%
- O=C(CSc1nc(-c2ccc(F)cc2)cc(C(F)(F)F)n1)NCC1CCCO1 (centres unmarked) — lower, -0.318%
- O=C(NCc1cccs1)c1cnn2c1NC(c1ccc(Br)cc1)CC2C(F)(F)F (centres unmarked) — lower, 0.161%
- CC1CCCC(NC(=O)c2ccc3snnc3c2)C1C (centres unmarked) — higher, 3.05%
- CN(C)c1ccc(NC(=O)c2cncc(Br)c2)cc1 — lower, -4.49%
- Cc1ccc(NS(=O)(=O)c2ccc(F)cc2)c(C)c1 — lower, -7.02%
- COc1ccc(C2CC3(CC(C)(C)NC(=S)N3)Oc3cc(O)cc(C)c32)cc1OC (centres unmarked) — lower, -2.5%
- CC(C)(C)OC(=O)N1CCC(c2cc(O)n3nc(-c4ccc(Cl)cc4)cc3n2)CC1 — lower, -2.83%
- CN1CCN(C(=O)C2CCN(c3ncnc4c3nc3n4CCCCC3)CC2)CC1 — lower, -4.77%
- Cc1c(C(c2ccco2)c2c(C)n(C)n(-c3ccccc3)c2=O)c(=O)n(-c2ccccc2)n1C — higher, 3.83%
- COc1ccc(OC)c(S(=O)(=O)N2CCN(c3ncccn3)CC2)c1 — higher, 1.67%
- Cc1ccccc1OCCCCCCN1CCNCC1 — lower, -0.473%
- Cc1ccc(C(=O)Nc2cccc(C(F)(F)F)c2)cc1[N+](=O)[O-] — lower, -0.771%
- CCc1ccc(-n2nc(C)c3c(C)cc(=O)n(CC(=O)NCc4ccc5c(c4)OCO5)c32)cc1 — lower, 0.586%
- CCCCNC(=O)C1CCC(CNS(=O)(=O)c2ccccc2)CC1 (centres unmarked) — higher, 3.93%
- COc1ccccc1OCCSc1n[nH]c2nc3ccccc3n12 — lower, -3.5%
- CC1=C(C(=O)Nc2ccccc2F)C(c2ccccc2Cl)C2=C(O)CCCC2=N1 (centres unmarked) — higher, 5.05%
- O=C(COc1ccccc1)NCCc1cccc(Cl)c1 — lower, -0.95%
- CCN(CC)c1ccc(NC(=O)c2ccc(C)c(C)c2)cc1 — lower, -3.92%
- COc1ccccc1N1CCN(CCCCN2C(=O)C3CCCN3C2=O)CC1 (centres unmarked) — higher, 3.04%
- OCC1CCCN1Cc1c(Cl)cccc1Cl (centres unmarked) — lower, -3.15%
